# Reference: PubChem BioAssay AID2675 (National Center for Advancing Translational Sciences (NCATS), 2010)
# In all, about 280,000 compounds went through this assay and about 100 (0.036%) were called active. This list was built around the results that the source calls inconclusive (neither active nor inactive); the mix of calls is not that of the screen. The call rests on the fitted dose curve; in most records, active means well fitted inhibition curve with a large enough effect in the signal ratio, with a control signal flat (not every such curve was filed as active); inconclusive means small, poorly fitted or top-dose-only effect, or effect the other way, or a change in a side signal; inactive means no such curve, though single readings can be large or run the other way; the % refers to the signal ratio. Where the call is inconclusive, the potency comes from a doubtful curve fit. “Side channel” marks fits to a control or component signal instead of the main read-out.
# Biological target: Muscleblind-like protein 1 (Homo sapiens) (UniProt Q9NR56)
# Chain of UniProt Q9NR56 (Q9NR56 whole entry, looked up): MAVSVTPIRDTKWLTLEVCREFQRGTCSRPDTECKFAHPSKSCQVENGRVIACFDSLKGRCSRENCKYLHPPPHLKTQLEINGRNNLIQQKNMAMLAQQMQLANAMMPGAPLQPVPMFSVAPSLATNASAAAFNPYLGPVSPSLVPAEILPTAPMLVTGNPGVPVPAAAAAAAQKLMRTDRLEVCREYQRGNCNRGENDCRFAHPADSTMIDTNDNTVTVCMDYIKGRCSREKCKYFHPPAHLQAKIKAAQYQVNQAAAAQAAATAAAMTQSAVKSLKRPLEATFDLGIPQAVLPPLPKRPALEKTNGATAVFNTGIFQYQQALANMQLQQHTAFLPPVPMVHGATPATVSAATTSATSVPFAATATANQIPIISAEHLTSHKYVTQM
# Assay: qHTS Assay for Inhibitors of MBNL1-poly(CUG) RNA binding
# Conditions: TR-FRET MBNL1-His/biotin-(CUG)12 binding, 665/545 ratio; activity change, negative = inhibition: at 57.5 µM (top of the series)
# How it was run: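 Compound titration spanned 92 nM–58 uM against the MBNL1-His/biotin-(CUG)12 complex. After 60 min at room temperature with 5 nM streptavidin-XL665 and 0.055 ng/ul terbium anti-His, ratiometric 665/545 nm emission (Ex 340 nm) normalized to controls.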
# On the % scale 0 is the no-effect control and ±100 the full control effect; potency means the concentration at half of the fitted maximal effect; tags describe the fitted curve by direction and shape or compound fluorescence and quenching.
Structure (SMILES),Potency,"activity change, negative = inhibition"
Nc1cccc(/C=C/c2ccncc2)c1,"inconclusive: 10 µM [quencher, side channel, partial curve]",–
COC(=O)CSC1=NS(=O)(=O)c2ccccc21,–,inactive: -2.57%
CCNC(=S)N/N=C(\C)c1cc2ccccc2o1,"inconclusive: 3.55 µM [quencher, side channel, single point]",–
Cc1cccc(CN2CCN(Cc3ccc4nonc4c3)CC2CCO)n1 (stereo not drawn),"inconclusive: 10 µM [quencher, side channel, partial curve]",–
CCOC(=O)C(C)On1c(-c2cccc(Cl)c2)nc2ccc([N+](=O)[O-])cc21 (stereo not drawn),"inconclusive: 28.2 µM [quencher, side channel, partial curve]",–
CCC(C)(C)C1CCC2(CC1)NC(=O)N(CC(=O)Nc1cc(C(F)(F)F)ccc1N1CCOCC1)C2=O (stereo not drawn),–,inactive: 1.13%
Cc1cc2nc3c(=O)n(C4CCCCC4)c(=O)[nH]c3nc2cc1N,"inconclusive: 20 µM [quencher, side channel, partial curve]",–
Cc1nc(CNC(=O)CC2C(=O)NCCN2Cc2cccc(Oc3ccccc3)c2)cs1 (stereo not drawn),–,inactive: -12.6%
CN(c1ccc(C(=O)Nc2cccc([N+](=O)[O-])c2)cc1)S(C)(=O)=O,"inconclusive: 17.8 µM [quencher, side channel, partial curve]",–
COc1cccc(CN2CCN(c3cccc(C(F)(F)F)c3)CC2)c1OC,"inconclusive: 8.91 µM [quencher, side channel, single point]",–
CCc1ccc(NC(=O)[C@@H](NC(=O)[C@@H]2Cc3ccccc3CN2)C(C)CC)cc1 (stereo partly drawn),–,inactive: 0.536%
Cc1ccc(C2=NS(=O)(=O)N(C)C(C(=O)Nc3ccc(F)cc3F)=C2)cc1,"inconclusive: 31.6 µM [quencher, side channel, partial curve]",–
CC(=O)N1c2ccc(S(=O)(=O)NCCC(=O)N(C)C3CCCCC3)cc2CC1C (stereo not drawn),–,inactive: -7.41%
CC(=O)c1ccc(Nc2cc(C)nc3ccccc23)cc1,"inconclusive: 17.8 µM [quencher, side channel, partial curve]",–
CCC(=Nc1ccc(N)cc1)C1=C(O)C(C(=O)OC)C(C)(C)CC1=O (stereo not drawn),"inconclusive: 17.8 µM [quencher, side channel, partial curve]",–
C=CCN(C(=O)CSc1nc2c(sc3ccccc32)c(=O)n1CCN(CC)CC)c1ccccc1,–,inactive: -2.64%
CC1=N/C(=C\c2ccc([N+](=O)[O-])cc2)C(=O)N1c1cc(Cl)ccc1C,"inconclusive: 2.51 µM [quencher, side channel, full curve, poor fit]",–
CCCCN(CC)CCNC(=O)c1cn(C)c(=O)c2c1c1ccccc1n2C,"inconclusive: 5.01 µM [quencher, side channel, single point]",–
COc1cc(C(=O)Nc2ccc(C(N)=O)cc2)c([N+](=O)[O-])cc1OC,"inconclusive: 15.8 µM [quencher, partial curve]",–
Cc1ccc([N+](=O)[O-])c(OCCN2CCNCC2)c1,–,inactive: -8.68%
N#Cc1cccc(NC(=O)CSc2sc3c(O)cc(=O)[nH]c3c2C#N)c1,"inconclusive: 17.8 µM [quencher, side channel, partial curve]",–

Structure (SMILES),Potency,"activity change, negative = inhibition"
CS(=O)(=O)c1ccc(N2CCN(c3ccccn3)CC2)c([N+](=O)[O-])c1,"inconclusive: 12.6 µM [quencher, side channel, partial curve]",–
CCn1cc(C(=O)NC2CCCc3c2cnn3-c2cccc(C)c2C)cn1 (stereo not drawn),–,inactive: -4.79%
COc1ccc(-n2c(Cc3cccs3)nnc2SCC(=O)Nc2ccc3c(c2)OCCO3)cc1,–,inactive: -2.48%
CCOC(=O)CSCC(=O)Nc1nnc(-c2cccc([N+](=O)[O-])c2)s1,"inconclusive: 5.62 µM [quencher, side channel, partial curve, poor fit]",–
CCCOc1ccc(N2C(=O)CC(N(Cc3ccccc3)N=O)C2=O)cc1 (stereo not drawn),–,inactive: -17.3%
CSc1nncc(-c2ccc(F)cc2)n1,"inconclusive: 28.2 µM [quencher, side channel, partial curve]",–
CCOc1cc([N+](=O)[O-])c2nc(N)sc2c1,"inconclusive: 12.6 µM [quencher, side channel, partial curve]",–
Cc1[nH][nH]c(=O)c1N=Nc1ccc(Cl)cc1,"inconclusive: 25.1 µM [quencher, side channel, partial curve]",–
COc1ccc(N(C(=O)c2ccco2)S(=O)(=O)c2cc(OC)ccc2OC)cc1,–,inactive: -5.38%
O=C(NCc1ccco1)c1ccccc1NS(=O)(=O)c1cccs1,–,inactive: -6.05%
COc1ccc(-c2ccnc3nc(/N=C/N(C)C)nn23)cc1,–,inactive: 26.8%
COc1ccc(C(=O)Nc2ccc(Nc3ccccc3)cc2)cc1[N+](=O)[O-],"inconclusive: 25.1 µM [quencher, side channel, single point]",–
O=C1NC(=O)/C(=C\c2ccsc2)N1,"inconclusive: 17.8 µM [quencher, side channel, partial curve]",–
COC(=O)c1c(C(=O)OC)c(-c2cccc(F)c2)n2c1CS(=O)(=O)C2,–,inactive: 0.401%
O=C1CCCN1CCCNc1ncccc1[N+](=O)[O-],"inconclusive: 25.1 µM [quencher, partial curve]",–
O=[N+]([O-])c1ccc2[nH]c(O)c(N=NC3CS(=O)(=O)CC3O)c2c1 (stereo not drawn),"inconclusive: 6.31 µM [quencher, side channel, partial curve]",–
O=c1cc(O)cc(/C=C/c2ccc(O)c(O)c2)o1,"inconclusive: 11.2 µM [quencher, side channel, partial curve]",–
COc1ccc2cc3c(N)nn(C(=O)c4ccccc4[N+](=O)[O-])c3nc2c1,"inconclusive: 14.1 µM [quencher, side channel, partial curve]",–
O=C(O)c1ccc2c(c1)OCCO2,–,inactive: -2.15%
O=C(Cc1cccc2ccccc12)Nc1ccc(-c2cc3ccccc3oc2=O)cc1,"inconclusive: 20 µM [fluorescent, side channel, partial curve]",–
CCOC(=O)C1(Cc2ccc(Cl)cc2)CCN(C(=O)c2cscn2)CC1,"inconclusive: 7.08 µM [fluorescent, side channel, single point]",–

Structure (SMILES),Potency,"activity change, negative = inhibition"
Brc1ccc2ncnc(NCc3ccccc3)c2c1,"inconclusive: 28.2 µM [fluorescent, side channel, single point]",–
CC(=O)Nc1ccc(NS(=O)(=O)c2cccc3ccccc23)cc1,–,inactive: 16.1%
Cc1nnc(SCC(=O)N2CCC(C(=O)Nc3nccs3)CC2)n1Cc1ccccc1,"inconclusive: 6.31 µM [quencher, side channel, full curve]",–
COC1CCCN(C(=O)c2ccc(OC3CCN(S(=O)(=O)N(C)C)CC3)cc2)C1 (stereo not drawn),–,inactive: 4.58%
COc1ccc(NC(=O)CC(C)C)c([N+](=O)[O-])c1,"inconclusive: 15.8 µM [quencher, side channel, partial curve]",–
Cc1cc(NC(=O)COC(=O)COc2ccc(Cl)cc2C)c([N+](=O)[O-])cc1C,"inconclusive: 5.01 µM [quencher, side channel, full curve]",–
CSc1nnc(C)c(/C=C/Nc2ccc(F)cc2F)n1,"inconclusive: 25.1 µM [quencher, side channel, single point]",–
COc1ccc(CC(=O)Nc2ccc(-c3ccc4nnc(C)n4n3)cc2)cc1OC,"inconclusive: 7.08 µM [quencher, side channel, partial curve]",–
O=C(C[n+]1ccc2ccccc2c1)c1ccc(NC(=O)c2ccccc2)cc1,"inconclusive: 17.8 µM [quencher, partial curve]",–
O=C(Nc1ccc(Cl)c(C(F)(F)F)c1)c1ccncc1,"inconclusive: 10 µM [quencher, side channel, partial curve]",–
Cc1ccc(C(=O)NCCN2C3=NC[C@H](C(C)C)N3C[C@H]2Cc2ccc(O)cc2)cc1Br,active: 39.8 µM,–
COc1cc(C2C3=C(Nc4nc(N)[nH]c(=O)c42)c2ccccc2C3=O)ccc1O (stereo not drawn),"inconclusive: 17.8 µM [quencher, side channel, partial curve]",–
COc1ccccc1N=Nc1ccc(O)c2ncccc12,"inconclusive: 25.1 µM [quencher, side channel, single point]",–
CCN1CCCC1CNC(=O)C1CCCN(S(=O)(=O)c2cccc3nsnc23)C1 (stereo not drawn),"inconclusive: 7.08 µM [quencher, side channel, partial curve]",–
CCC1CCCCN1C(=O)c1ccc([N+](=O)[O-])o1 (stereo not drawn),"inconclusive: 14.1 µM [quencher, side channel, partial curve]",–
C=CCNC(=O)COC(=O)C1CCN(S(=O)(=O)c2ccc3c(c2)OCCO3)CC1,"inconclusive: 28.2 µM [quencher, side channel, partial curve]",–
CCc1cc(C(=O)O)c(NC(=O)/C=C/c2ccc(OC)cc2)s1,"inconclusive: 31.6 µM [quencher, side channel, single point]",–
COc1ccccc1-c1nnc(-c2ccc(N3CCOCC3)cc2)o1,–,inactive: 18.8%
CCOc1ccccc1-c1nc2c([nH]1)c(=O)n(C)c(=O)n2C,–,inactive: 2.27%
COc1ccc(N(C(=O)Cn2nnc(-c3ccc(Cl)cc3)n2)C(C(=O)NCC2CCCO2)c2ccncc2)cc1 (stereo not drawn),"inconclusive: 15.8 µM [quencher, side channel, single point]",–
O=C(C1=C(O)C(=O)N(c2ncccn2)C1c1cccc(Cl)c1)c1ccco1 (stereo not drawn),"inconclusive: 39.8 µM [quencher, side channel, single point]",–
